Assay results as given in the supplement of paper PMC11417369.
± gives the standard deviation of the averaged measurements. Some of the results follow.

Test system: PfAP2-LT AP2 domain (GST-tagged)
Assay: gcPBM binding intensity (ln(normalized median fluorescence intensity)); higher = stronger DNA binding
Method in brief: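 Binding intensity values are the highest Masliner-normalised natural-log median intensity among replicate spots of either probe orientation. The binding step lasted 1 h in 1× PBS with 1% milk, 0.2 mg/ml BSA, 0.5% salmon testes DNA and 0.03% Triton X-100, using GST-tagged P. falciparum DNA-binding domains expressed in E. coli on an Agilent 4 × 180k array of primer-extended double-stranded 36-bp intergenic genomic probes plus negative controls. Alexa488 anti-GST antibody and a 488 nm scan detected bound protein.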

| Sequence | gcPBM binding intensity (ln) |
| --- | --- |
| TTAAAAAAATATTGAAGTACACACATTATAAACTTT [XGTACX_site3548] | 8.69 ± 0.47 |
| ATATTTAACAGGTTAAAAATATAAACAAATAAATAA [CACACA_negctrl_site907] | 8.53 ± 0.57 |
| GAGAGGATAGTTCACAGTACTCAGTAACTCTACGGA [XGTACX_site4875] | 8.87 ± 0.44 |
| TAATAATATATTTGTAGTACACAATTTTTTATAACT [XGTACX_site3951] | 8.6 ± 0.52 |
| TACTTATATACACATGTATATTATATATATAATATA [XGTACX_negctrl_site335] | 8.72 ± 0.38 |
| TGTTATTAAAATATAGTGCATAATTAACCATTATAA [GTGCAC_site9594] | 8.54 ± 0.5 |
| CACACGCACGGACACACACACATATAAAATCTATAT [CACACA_site6428] | 9.85 ± 0.57 |
| TACTATAACAGACATACACACAAAAAAAAAAAAAAA [CACACA_site538] | 9.03 ± 0.47 |
| AATATATAAATTGACACACACATATATACATATATA [CACACA_site1213] | 9.29 ± 0.32 |
| TGTTAATATATCATTATGTTATAGGTTCAGCTGGGA [CACACA_negctrl_site401] | 8.56 ± 0.38 |
| GATATGTTTTCCTAGGTTCATGATGATAGGTAGTTT [XGTACX_negctrl_site217] | 8.94 ± 0.48 |
| TTTGTGGTTACATGTGCACACACTTATTTCGTTCTT [CACACA_site1435] | 9.59 ± 0.45 |
| TATATTTGTTAATTTTGTACGTATGGATATACATAA [XGTACX_site5100] | 8.61 ± 0.43 |
| TATAAATATAGAATTACACACAATGTTCTATAAATA [CACACA_site7508] | 8.67 ± 0.47 |
| AAGGTGGTTATTAAATGTACACAGACATATACAAAA [XGTACX_site3007] | 8.82 ± 0.46 |
| AGGTAGAAAAAAGACACACACATTATATATATATAT [CACACA_site4367] | 9.61 ± 0.29 |
| TAATATAAAGAAATATCAATAATTTGGGCAAATGCC [GTGCAC_negctrl_site621] | 8.34 ± 0.52 |
| ATATGCTACATTATATGTACACACATATACATATAT [XGTACX_site1656] | 9.46 ± 0.39 |
| TTTTATGCATGTGAAGTGCAAAATAAAAAATAAAAT [GTGCAC_site9612] | 8.79 ± 0.49 |

| Sequence | gcPBM binding intensity (ln) |
| --- | --- |
| TTCATTCATTTTATTACACACAAAAAAAAAAAAAAA [CACACA_site3680] | 8.48 ± 0.3 |
| AGTTATTTTATAGAATATGAATAATTTTACTTTTCA [XGTACX_negctrl_site403] | 8.49 ± 0.4 |
| AAAAAAAAAGGTACTACACACTATTCTCAATAGAAA [CACACA_site6193] | 8.85 ± 0.52 |
| AATTTCATTTTACTTATCTAATATTTATAATCTTTT [CACACA_negctrl_site636] | 8.65 ± 0.47 |
| AATAATATACCTCTTGTGCACATATTAAAAGTTCAT [GTGCAC_site9536] | 8.88 ± 0.39 |
| TTCGTCTTTTTTCTCACACACCCTTTTTATTAAAAG [CACACA_site7225] | 9.05 ± 0.6 |
| AGAATTAAAATAAAGGTGCATTTTTTTGTTTCATGT | 8.7 ± 0.43 |
| AAAGAATACATATATTGTACATATATATATACCGTT [XGTACX_site6250] | 9.02 ± 0.45 |
| ATAATACAAAACACAAGTACATAAATTAAAAAGATG [XGTACX_site7839] | 9.12 ± 0.5 |
| ATATATATTAAAAATAGTACATATAATAAAAATCAT [XGTACX_site4265] | 8.87 ± 0.35 |
| AACGATATAGGTACTACACACATTATGTCATCCTAT [CACACA_site7205] | 9.37 ± 0.28 |
| TACATATTCCTACAAATGTATAAATTATAAATATTA [XGTACX_negctrl_site30] | 8.36 ± 0.49 |
| ATATGAAATATATGTAGTACACATAATTAAAAGTAG [XGTACX_site6490] | 9.08 ± 0.38 |
| TGTATATGTTTAATTAGTACATATAAAGTAACAATA [XGTACX_site1207] | 8.72 ± 0.39 |
| TTAGGATATTTATTTCGTACATATATTTTTAATTGT [XGTACX_site582] | 8.69 ± 0.47 |
| AATTTTTATATAATTTAACACACATTTCATATAAAA [CACACA_site9018] | 8.53 ± 0.38 |
| TACTTCATATAATTAGCACACAATAATTTCTCATTT [CACACA_site2872] | 8.87 ± 0.49 |
| TATAAATTATTTATCACACATAAAACAAAAATAAGA [CACACA_site5493] | 8.65 ± 0.44 |
| ATCCGTGGGTGAAATACACACATGATAATGTGAATG [CACACA_site4662] | 9.04 ± 0.44 |

| Sequence | gcPBM binding intensity (ln) |
| --- | --- |
| ATAAATGAACAAGTGGCACACACACCGTATAACTAA [CACACA_site9047] | 9.47 ± 0.45 |
| TGAAAAATATAAGGTTGTACTTACATCGGGAATAAT [XGTACX_site4701] | 8.81 ± 0.47 |
| AATTATGTGTGTCAATGTACACGATTTACATAATAT [XGTACX_site5150] | 9.11 ± 0.36 |
| AATATATGGTTTCTTGATATTAAATTCAATTTAATG [CACACA_negctrl_site69] | 8.51 ± 0.41 |
| ACACATACAACGTGGTGTACAAATAATTATAATCAA [XGTACX_site2287] | 9.19 ± 0.63 |
| AATCTTTGTAATAAAAGTACATTAATTTTATTAATA [XGTACX_site8325] | 8.3 ± 0.5 |
| TAAGTATATATATTTACACACATTTGTTTTTTTTTA [CACACA_site3784] | 8.96 ± 0.45 |
| TTTTAAATACTTTATTGTACATTATATATATATATA [XGTACX_site7021] | 8.74 ± 0.39 |
| AAAAAAAAAAAAAAAAGTACATATAATAAATAATGA [XGTACX_site7931] | 8.49 ± 0.55 |
| TATATCTTAATATTTACACACATGCGCACCCATAAA [CACACA_site5349] | 9.27 ± 0.38 |
| ATATAAACACTGAATGCATGCACATATATATATATA [TGCATGCA_site940] | 9.93 ± 0.26 |
| ATAAAGGAATTTTATACACACAACATATATATATAT [CACACA_site2861] | 9.28 ± 0.4 |
| TTTTTTTTTACTAACTGTACTAAAGAAAAAAAAGGG [XGTACX_site3519] | 8.2 ± 0.33 |
| ATGTGTATATGTGTGGGTACTTAATTTTTTTCTTTA [XGTACX_site5351] | 9.24 ± 0.15 |
| CGTATTATTATATAAACACACAAGGGGGCATGTATA [CACACA_site745] | 9.58 ± 0.028 |
| GTTATAATTGAACTAGTGCATAAATATATTTTAATT [GTGCAC_site9851] | 8.6 ± 0.46 |
| AATTCTGGCAAAATAACACACACATATATTTTATAT [CACACA_site9064] | 9.23 ± 0.38 |
| TATCTTTTTTTTAATACACACAAATATATGAAAGTA [CACACA_site4161] | 8.54 ± 0.36 |
